The inconclusive results got no clear call from the source; some entries with a clear call stand among them for comparison. Where a call stands in place of a potency, no number is given. For part of these data: A potency beside an inconclusive call is a rough fit, not a confirmed value. Calls of active or inactive are those of the source. Unless noted, the call rests on the fitted dose curve; in most records, active means well fitted curve in the direction sought with a large enough effect in the repeat runs; inconclusive means weak or mixed curves; inactive means no such curve, though single readings can be large; an effect the other way counts as inactive or inconclusive.
Key:
[1] = qHTS assay for small molecule agonists of the p53 signaling pathway (AID 651631; calls by dose curve; further: nearly all actives have a fitted effect of over 15% in size); details: HCT-116 p53RE-bla reporter, beta-lactamase FRET ratio, 16 h; activation: at 73.3 µM (top of the series) unless noted
Procedure, shortened: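 Testing took place in human colorectal HCT-116 cells with stable p53RE-driven beta-lactamase. After 16 h of compound exposure at 37 °C, a FRET substrate was added and fluorescence recorded 2 h later.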

[2] = qHTS assay for small molecule disruptors of the mitochondrial membrane potential (AID 720635); details: HepG2 mitochondrial membrane potential, Mito-MPS dye ratio; ratio activity, negative = MMP loss: at 83.2 µM (top of the series) unless noted
Procedure, shortened: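 HepG2 cells (2,000/well) attached overnight at 37C, then took compound for 1 hr at 37C, 5% CO2. Mito-MPS dye was added for 30 min; fluorescence was read at 490/535 nm (monomers) and 540/590 nm (aggregates).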

[3] = qHTS assay to identify small molecule antagonists of the thyroid receptor (TR) signaling pathway - cell viability counter screen (AID 743064); details: GH3.TRE-Luc viability, CellTiter-Fluor, 24 h; activity change, negative = cytotoxic: at 70.3 µM (top of the series) unless noted; further: nearly all actives have a fitted effect of over 50% in size; further: potency means the concentration at half of the fitted maximal effect
Procedure, shortened: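 Viability of T3-stimulated (1 nM final) GH3.TRE-Luc cells is measured by CellTiter-Fluor fluorescence after 23.5 h compound exposure at 37 °C plus 30 min reagent incubation.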

[4] = qHTS assay to identify small molecule antagonists of the estrogen receptor alpha (ER-alpha) signaling pathway - cell viability counter screen (AID 743074; calls by dose curve;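 further: HEK293 cells carrying ER-alpha-UAS-bla reporter stimulated with 17beta-estradiol; potency means the concentration at half of the fitted maximal effect; nearly all actives have a fitted effect of over 45% in size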)
[5] = qHTS assay to identify aromatase inhibitors - cell viability counter screen (AID 743084); details: MCF-7 aro ERE viability, CellTiter-Fluor, 24 h; activity change, negative = cytotoxicity: at 70.3 µM (top of the series) unless noted;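 further: cells stimulated with testosterone during compound exposure; nearly all actives have a fitted effect of over 55% in size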
[6] = molecular target: Nuclear receptor subfamily 1 group I member 2 (Rattus norvegicus) (UniProt Q9R1A7); assay: Rat pregnane X receptor (rPXR) activation by small molecules, qHTS assay (AID 1346983); details: rPXR luciferase reporter cells, One-Glo luminescence, 24 h; max activation: active compounds read high; further: nearly all actives have a fitted effect of over 20% in size; further: potency means the concentration at half of the fitted maximal effect
Procedure, shortened: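 Cell-based rPXR luciferase reporter assay, 2,000 cells per well, rested 5hr at 37 C before compound addition in DMSO, then 24 hr at 37 C. One-Glo reagent was added and luminescence read after 30 min at room temperature.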

[7] = molecular target: Glucocorticoid receptor (Homo sapiens) (UniProt P04150); assay: qHTS assay to identify small molecule antagonists of the glucocorticoid receptor (GR) signaling pathway (AID 720692; active means well fitted inhibition curve with a large enough effect in the signal ratio in the repeat runs, not every such curve was filed as active; inconclusive means weak or mixed curves, or effect the other way; inactive means no such curve, though single readings can be large or run the other way; the % refers to the signal ratio); details: GR-bla HeLa, beta-lactamase FRET ratio, dexamethasone-stimulated, 18 h; activity change, negative = inhibition: at 58.5 µM (top of the series) unless noted
Procedure, shortened: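 Cells plated, rested 4 h at 37 C/5% CO2; compounds in DMSO pin-transferred; dexamethasone added to 5 nM final; 18 h at 37 C; B/G FRET substrate added, 2 h room temperature; fluorescence measured.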

[8] = qHTS assay for identifying genotoxic compounds that show differential cytotoxicity against isogenic chicken DT40 cell lines with known DNA damage response pathways - wild type cell line (AID 743012); details: DT40 wild type chicken cells viability, CellTiter-Glo, 40 h; activity change, negative = cytotoxicity: at 68.4 µM (top of the series) unless noted; further: nearly all actives have a fitted effect of over 60% in size; further: potency means the concentration at half of the fitted maximal effect
Procedure, shortened: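 Cells (DT40 wild type, 300/well) are treated with DMSO-dissolved compounds after a ~0.5 h pre-incubation and kept 40 h at 37 C/5% CO2. Viability is then measured by CellTiter-Glo luminescence following 30 min at room temperature.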

[9] = qHTS assay for identifying genotoxic compounds that show differential cytotoxicity against isogenic chicken DT40 cell lines with known DNA damage response pathways - Rev3 mutant cell line (AID 743014); details: chicken DT40 Rev3-/- viability, CellTiter-Glo, 40 h; activity, negative = cytotoxicity: at 68.4 µM (top of the series) unless noted; further: potency means the concentration at half of the fitted maximal effect; nearly all actives have a fitted effect of over 55% in size
[10] = molecular target: Estrogen receptor (Homo sapiens) (UniProt P03372); assay: qHTS assay to identify small molecule agonists of the estrogen receptor alpha (ER-alpha) signaling pathway using the BG1 cell line (AID 743079); details: BG1Luc4E2 cells, ERE-luciferase agonist, 22 h; activation: at 70.3 µM (top of the series) unless noted; further: potency means the concentration at half of the fitted maximal effect; nearly all actives have a fitted effect of over 20% in size
[11] = qHTS assay to identify small molecule antagonists of the estrogen receptor alpha (ER-alpha) signaling pathway using the BG1 cell line (AID 743080; calls by dose curve;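 further: BG1 cells stimulated with 17beta-estradiol alongside compound; potency means the concentration at half of the fitted maximal effect; nearly all actives have a fitted effect of over 25% in size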); details: BG1Luc4E2 ERE-luciferase antagonist mode, luminescence; activity change, negative = inhibition: at 70.3 µM (top of the series) unless noted
Procedure, shortened: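 Luciferase inhibition measured with ONE-Glo after 30 min at RT in BG1Luc4E2 cells given test compounds and 17beta-estradiol for 21.5 h at 37 C; CellTiter-Fluor viability read in the same wells beforehand.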

[12] = molecular target: Nuclear receptor subfamily 1 group I member 2 (Homo sapiens) (UniProt O75469); assay: Human pregnane X receptor (PXR) activation by small molecules, qHTS assay (AID 1346985); further: potency means the concentration at half of the fitted maximal effect; nearly all actives have a fitted effect of over 40% in size
Procedure, shortened: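 DPX-2 cells (HepG2 co-transfected with a PXR response element and a CYP3A4-promoter luciferase construct) were seeded at 2,000 per well, rested 5 hr at 37C, then exposed to DMSO-dissolved compounds for 24 hr. Activation was read as luciferase luminescence.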

[13] = qHTS assay for small molecules that induce genotoxicity in human embryonic kidney cells expressing luciferase-tagged ATAD5 - cell viability (AID 651634; calls by dose curve; further: nearly all actives have a fitted effect of over 25% in size)
Procedure, shortened: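 Cytotoxicity counterscreen in HEK293T cells bearing an ATAD5-luciferase reporter: live-cell protease activity measured by CellTiter-Fluor fluorescence after 15.5 hr compound exposure.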

[14] = qHTS assay to identify small molecule antagonists of the androgen receptor (AR) signaling pathway using the MDA cell line - cell viability counter screen (AID 743041; further: potency means the concentration at half of the fitted maximal effect; nearly all actives have a fitted effect of over 45% in size); details: MDA-kb2 viability, CellTiter-Fluor, 16 h, cells co-treated with R1881 androgen agonist; viability change, negative = cytotoxic: at 70.3 µM (top of the series)
Procedure, shortened: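 MDA-kb2 AR-luc human breast carcinoma cells (MMTV-luciferase, AR/GR responsive) were treated with compounds plus R1881 agonist for 16 h at 37 °C. Viability was read as CellTiter-Fluor fluorescence in the same wells as the reporter assay.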

[15] = qHTS assay to identify small molecule antagonists of the thyroid receptor (TR) signaling pathway (AID 743065); further: nearly all actives have a fitted effect of over 55% in size
Procedure, shortened: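 GH3.TRE-Luc rat pituitary cells carrying two TR response elements driving luciferase were plated for 4 h, given compound plus 1 nM T3 (final), and incubated 23.5 h at 37 C. ONE-Glo luminescence measured reporter inhibition; CellTiter-Fluor fluorescence tracked cytotoxicity.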

Aromatase (Homo sapiens) = Aromatase (Homo sapiens) (UniProt P11511); assay: qHTS assay to identify aromatase inhibitors (AID 743083); further: nearly all actives have a fitted effect of over 55% in size
[16] = molecular target: Aryl hydrocarbon receptor (Homo sapiens) (UniProt P35869); assay: qHTS assay to identify small molecule that activate the aryl hydrocarbon receptor (AhR) signaling pathway (AID 743085);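 further: HG2L7.5c1 human HepG2 liver cells with stably integrated DRE-driven firefly reporter; nearly all actives have a fitted effect of over 15% in size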
Procedure, shortened: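 A multiplexed format paired cell viability (CellTiter-Fluor fluorescence) with AhR-dependent luciferase output (ONE-Glo luminescence) in the same wells of HepG2 DRE-luc cells after 24 h compound exposure at 37C.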

[17] = qHTS assay to identify small molecule that activate the aryl hydrocarbon receptor (AhR) signaling pathway - cell viability counter screen (AID 743086);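 further: HepG2 liver cells carrying the AhR DRE luciferase reporter; nearly all actives have a fitted effect of over 45% in size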
Procedure, shortened: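 HepG2-AhR-luc (HG2L7.5c1) cells, 4000/well, were preincubated 5 h at 37C, exposed to compound in qHTS format for 24 hr at 37C, then given CellTiter-Fluor for 30 min; viability was read as fluorescence in the reporter wells.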

[18] = molecular target: Peroxisome proliferator-activated receptor gamma (Homo sapiens) (UniProt P37231); assay: qHTS assay to identify small molecule agonists of the peroxisome proliferator-activated receptor gamma (PPARg) signaling pathway (AID 743094; active means well fitted activation curve with a large enough effect in the signal ratio in the repeat runs, not every such curve was filed as active; inconclusive means weak or mixed curves, or effect the other way; inactive means no such curve, though single readings can be large or run the other way; the % refers to the signal ratio); details: HEK293H PPARg-UAS-bla, beta-lactamase FRET ratio, 17 h; activation: at 57 µM (top of the series) unless noted
Procedure, shortened: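 Quantitative HTS agonist mode: stable HEK293H line with UAS-beta-lactamase reporter under PPARg control, 17 h compound exposure at 37C, fluorescence after 1 h FRET substrate loading at room temperature.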

[19] = qHTS assay for small molecules that induce genotoxicity in human embryonic kidney cells expressing luciferase-tagged ATAD5 (AID 651632); further: potency means the concentration at half of the fitted maximal effect; nearly all actives have a fitted effect of over 15% in size
Procedure, shortened: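 Increased luciferase signal from ATAD5-tagged reporter cells indicates DNA-damage-driven ATAD5 induction. HEK293T cells are treated for 16 hr at 37C before detection with Amplite.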
Tags describe the fitted curve by direction and shape.

Chain of UniProt Q9R1A7 (Q9R1A7 whole entry, looked up): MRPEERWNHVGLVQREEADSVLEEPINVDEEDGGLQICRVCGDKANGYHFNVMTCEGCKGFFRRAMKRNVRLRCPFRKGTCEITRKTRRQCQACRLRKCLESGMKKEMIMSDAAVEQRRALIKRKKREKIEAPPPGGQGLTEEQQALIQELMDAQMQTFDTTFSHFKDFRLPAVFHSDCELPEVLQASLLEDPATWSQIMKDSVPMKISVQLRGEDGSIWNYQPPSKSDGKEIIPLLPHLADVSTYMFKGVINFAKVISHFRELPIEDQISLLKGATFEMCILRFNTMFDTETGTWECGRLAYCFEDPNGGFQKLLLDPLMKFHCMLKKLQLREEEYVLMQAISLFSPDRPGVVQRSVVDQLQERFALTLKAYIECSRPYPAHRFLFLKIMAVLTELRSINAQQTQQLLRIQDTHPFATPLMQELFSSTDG
Chain of UniProt P04150 (P04150 whole entry, looked up): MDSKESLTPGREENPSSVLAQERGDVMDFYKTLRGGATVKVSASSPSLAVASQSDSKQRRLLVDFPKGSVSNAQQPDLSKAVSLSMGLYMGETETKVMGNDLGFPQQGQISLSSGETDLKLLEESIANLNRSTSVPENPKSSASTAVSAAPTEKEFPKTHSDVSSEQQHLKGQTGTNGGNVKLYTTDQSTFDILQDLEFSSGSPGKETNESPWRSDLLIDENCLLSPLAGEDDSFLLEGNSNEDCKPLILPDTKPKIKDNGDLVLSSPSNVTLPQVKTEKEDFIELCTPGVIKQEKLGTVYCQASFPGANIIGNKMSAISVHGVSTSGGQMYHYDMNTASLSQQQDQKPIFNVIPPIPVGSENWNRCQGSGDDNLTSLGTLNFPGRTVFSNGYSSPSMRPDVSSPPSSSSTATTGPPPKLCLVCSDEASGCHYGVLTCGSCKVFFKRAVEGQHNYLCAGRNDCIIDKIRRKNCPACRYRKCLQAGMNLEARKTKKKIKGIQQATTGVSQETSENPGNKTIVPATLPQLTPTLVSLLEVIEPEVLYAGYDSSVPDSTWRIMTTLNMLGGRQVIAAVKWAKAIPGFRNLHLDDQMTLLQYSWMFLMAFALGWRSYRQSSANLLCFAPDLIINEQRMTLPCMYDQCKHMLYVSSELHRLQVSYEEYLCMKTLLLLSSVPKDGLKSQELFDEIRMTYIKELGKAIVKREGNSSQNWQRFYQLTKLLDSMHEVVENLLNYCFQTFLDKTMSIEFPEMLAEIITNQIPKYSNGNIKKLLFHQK
Chain of UniProt P35869 (P35869 whole entry, looked up): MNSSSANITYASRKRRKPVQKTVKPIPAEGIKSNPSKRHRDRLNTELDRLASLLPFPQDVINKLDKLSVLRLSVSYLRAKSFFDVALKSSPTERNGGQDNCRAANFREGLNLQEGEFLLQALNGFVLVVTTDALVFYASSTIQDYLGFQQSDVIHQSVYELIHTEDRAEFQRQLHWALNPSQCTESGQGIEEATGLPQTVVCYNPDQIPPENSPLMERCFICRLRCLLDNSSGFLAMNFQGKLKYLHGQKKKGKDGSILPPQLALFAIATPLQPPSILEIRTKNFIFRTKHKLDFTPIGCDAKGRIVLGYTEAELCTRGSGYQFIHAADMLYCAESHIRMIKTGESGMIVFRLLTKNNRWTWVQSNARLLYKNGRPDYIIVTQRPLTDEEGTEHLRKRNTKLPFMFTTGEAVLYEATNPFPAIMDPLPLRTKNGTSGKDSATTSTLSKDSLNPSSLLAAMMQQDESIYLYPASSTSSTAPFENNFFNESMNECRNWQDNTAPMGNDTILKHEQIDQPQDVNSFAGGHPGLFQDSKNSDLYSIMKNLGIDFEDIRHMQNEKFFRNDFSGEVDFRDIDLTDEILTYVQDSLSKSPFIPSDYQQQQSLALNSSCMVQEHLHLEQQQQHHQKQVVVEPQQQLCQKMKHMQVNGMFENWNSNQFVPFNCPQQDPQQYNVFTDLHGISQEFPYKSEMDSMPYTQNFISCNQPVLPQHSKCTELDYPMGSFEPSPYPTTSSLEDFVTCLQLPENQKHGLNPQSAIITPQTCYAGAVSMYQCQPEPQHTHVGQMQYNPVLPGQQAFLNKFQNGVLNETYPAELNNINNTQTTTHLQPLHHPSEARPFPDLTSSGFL
Chain of UniProt P11511 (P11511 whole entry, looked up): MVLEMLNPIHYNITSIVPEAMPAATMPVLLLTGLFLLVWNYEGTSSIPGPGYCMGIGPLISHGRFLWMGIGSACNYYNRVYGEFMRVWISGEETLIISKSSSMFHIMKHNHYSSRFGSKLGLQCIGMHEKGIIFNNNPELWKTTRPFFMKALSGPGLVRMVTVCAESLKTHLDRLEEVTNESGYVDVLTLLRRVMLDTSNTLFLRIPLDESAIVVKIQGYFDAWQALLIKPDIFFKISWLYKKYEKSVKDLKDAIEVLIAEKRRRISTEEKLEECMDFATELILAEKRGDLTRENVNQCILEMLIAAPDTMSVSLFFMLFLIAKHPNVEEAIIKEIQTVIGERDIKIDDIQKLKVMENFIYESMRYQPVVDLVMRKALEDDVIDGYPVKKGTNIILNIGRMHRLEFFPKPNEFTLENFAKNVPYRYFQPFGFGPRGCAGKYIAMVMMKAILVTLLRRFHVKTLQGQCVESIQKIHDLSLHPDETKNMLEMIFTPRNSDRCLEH
Chain of UniProt P37231 (P37231 whole entry, looked up): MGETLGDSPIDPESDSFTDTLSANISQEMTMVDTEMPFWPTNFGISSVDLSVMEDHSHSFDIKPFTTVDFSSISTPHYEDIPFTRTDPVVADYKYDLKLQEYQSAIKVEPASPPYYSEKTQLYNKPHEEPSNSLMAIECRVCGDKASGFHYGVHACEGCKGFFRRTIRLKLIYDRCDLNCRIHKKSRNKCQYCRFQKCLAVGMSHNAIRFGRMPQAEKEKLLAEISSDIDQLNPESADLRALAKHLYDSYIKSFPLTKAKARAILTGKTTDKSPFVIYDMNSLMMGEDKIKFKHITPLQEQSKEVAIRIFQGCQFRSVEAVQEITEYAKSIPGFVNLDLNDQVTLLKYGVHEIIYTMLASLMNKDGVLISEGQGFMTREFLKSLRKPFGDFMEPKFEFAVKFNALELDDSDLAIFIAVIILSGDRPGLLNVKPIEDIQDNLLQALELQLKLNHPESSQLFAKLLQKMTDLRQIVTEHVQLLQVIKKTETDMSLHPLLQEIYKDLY
Chain of UniProt P03372 (P03372 whole entry, looked up): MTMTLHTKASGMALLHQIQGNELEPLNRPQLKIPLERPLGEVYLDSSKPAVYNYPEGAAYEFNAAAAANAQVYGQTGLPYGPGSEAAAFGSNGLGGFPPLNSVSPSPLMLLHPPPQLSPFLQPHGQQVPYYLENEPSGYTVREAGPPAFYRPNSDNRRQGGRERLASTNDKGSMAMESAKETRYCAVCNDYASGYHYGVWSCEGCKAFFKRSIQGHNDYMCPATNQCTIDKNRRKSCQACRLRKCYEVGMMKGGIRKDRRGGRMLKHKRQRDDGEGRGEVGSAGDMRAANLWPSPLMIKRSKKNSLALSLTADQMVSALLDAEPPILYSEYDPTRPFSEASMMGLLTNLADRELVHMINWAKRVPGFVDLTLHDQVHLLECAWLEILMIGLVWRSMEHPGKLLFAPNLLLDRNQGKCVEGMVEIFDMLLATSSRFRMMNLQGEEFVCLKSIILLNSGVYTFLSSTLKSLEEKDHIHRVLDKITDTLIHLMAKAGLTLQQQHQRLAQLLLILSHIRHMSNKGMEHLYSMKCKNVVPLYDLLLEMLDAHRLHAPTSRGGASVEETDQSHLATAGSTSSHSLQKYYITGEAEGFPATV

In the case of CC/C(=C(/CC)c1ccc(OP(=O)(O)O)cc1)c1ccc(OP(=O)(O)O)cc1, the Potency [1] is reported as “inactive”, the Potency [2] is reported as “inactive” and the Potency [3] is reported as inconclusive: 0.944 µM [rising, full curve, poor fit]. For the same compound, the Potency [4] was inconclusive: 8.49 µM [rising, partial curve], the Potency [5] was “inactive” and the max activation [6] was inactive: -1.74%.
In the case of CC(C)CN(C[C@@H](O)[C@H](Cc1ccccc1)NC(=O)O[C@@H]1CCOC1)S(=O)(=O)c1ccc(N)cc1, the Potency [7] is reported as “inactive”, the Potency [8] is reported as inconclusive: 7.5 µM [cytotoxic, partial curve] and the Potency [9] is reported as inconclusive: 33.5 µM [cytotoxic, partial curve, poor fit]. The Potency [3] was inconclusive: 0.335 µM [rising, full curve, poor fit], the Potency [10] was inconclusive: 0.266 µM [activator, full curve] and the Potency [11] was inconclusive: 6.68 µM [rising, partial curve]. The Potency [6] was inconclusive: 25.1 µM [activator, partial curve] and the Potency [12] was active: 2.82 µM.
For O=C(/C=C/c1cccc(F)c1)NC1CC1, the Potency [13] was “inactive”, the activity change, negative = inhibition [7] was inconclusive: 0.0995% and the Potency [8] was “inactive”. For the same compound, the Potency [14] was inconclusive: 33.5 µM [rising, single point], the Potency [3] was “inactive” and the Potency [15] was “inactive”. For the same compound, the Potency (Aromatase (Homo sapiens)) was “inactive”, the Potency [16] was “inactive” and the Potency [17] was “inactive”. The Potency [18] was “inactive” and the Potency [6] was inconclusive: 28.2 µM [activator, single point].
With CCCCCCCCCCCCOCCCN the Potency [1] was “inactive”, the Potency [19] was inconclusive: 33.5 µM [activator, partial curve, poor fit] and the Potency [2] was “inactive”. The Potency [8] was “inactive” and the max activation [6] was inactive: -3.73%.

Reference: PubChem BioAssay (Tox21)
